# This is one part of the list.
# Key:
# Test in all cases: glycan array binding signal (z-score within array); higher = stronger binding
# Conditions in all cases: glycan notation: IUPAC condensed, linker removed
# Fuc(a1-2)Gal = biological target: Fuc(a1-2)Gal
# Summary of the method: (§1)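 Glycan array data came from 3228 arrays in the Consortium for Functional Glycomics database, and only arrays with an available protein sequence were kept. Glycan names were put into IUPAC-condensed notation, and columns mapping to the same glycan were averaged. The binding signal is a within-array Z-score, averaged across arrays of one protein sequence run at different concentrations or buffers and across linkers. A negative Z-score can be read as non-binding.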
# Fuc(a1-2)Gal(b1-3)GalNAc = biological target: Fuc(a1-2)Gal(b1-3)GalNAc
# Summary of the method: as §1
# [1] = biological target: Fuc(a1-2)Gal(b1-3)GalNAc(b1-3)Gal
# Summary of the method: as §1
# [2] = biological target: Fuc(a1-2)Gal(b1-3)GalNAc(b1-3)Gal(a1-4)Gal(b1-4)Glc
# Summary of the method: as §1
# [3] = biological target: Fuc(a1-2)Gal(b1-3)GalNAc(b1-4)[Neu5Ac(a2-3)]Gal(b1-4)Glc
# Summary of the method: as §1
# Fuc(a1-2)Gal(b1-3)GlcNAc = biological target: Fuc(a1-2)Gal(b1-3)GlcNAc
# Summary of the method: as §1
# [4] = biological target: Fuc(a1-2)Gal(b1-3)GlcNAc(b1-3)Gal(b1-4)Glc
# Summary of the method: as §1
# [5] = biological target: Fuc(a1-2)Gal(b1-3)[Fuc(a1-4)]GlcNAc
# Summary of the method: as §1
# Fuc(a1-2)Gal(b1-4)Glc = biological target: Fuc(a1-2)Gal(b1-4)Glc
# Summary of the method: as §1
# Fuc(a1-2)Gal(b1-4)GlcNAc = biological target: Fuc(a1-2)Gal(b1-4)GlcNAc
# Summary of the method: as §1
# [6] = biological target: Fuc(a1-2)Gal(b1-4)GlcNAc(b1-3)Gal(b1-4)GlcNAc
# Summary of the method: as §1
# [7] = biological target: Fuc(a1-2)Gal(b1-4)GlcNAc(b1-3)Gal(b1-4)GlcNAc(b1-3)Gal(b1-4)GlcNAc
# Summary of the method: as §1
# [8] = biological target: Fuc(a1-2)Gal(b1-4)[Fuc(a1-3)]GlcNAc
# Summary of the method: as §1
# [9] = biological target: Fuc(a1-2)Gal(b1-4)[Fuc(a1-3)]GlcNAc(b1-3)Gal(b1-4)[Fuc(a1-3)]GlcNAc
# Summary of the method: as §1
# [10] = biological target: Fuc(a1-2)Gal(b1-4)[Fuc(a1-3)]GlcNAc(b1-3)Gal(b1-4)[Fuc(a1-3)]GlcNAc(b1-3)Gal(b1-4)[Fuc(a1-3)]GlcNAc
# Summary of the method: as §1
# Fuc(a1-2)GlcNAc = biological target: Fuc(a1-2)GlcNAc
# Summary of the method: as §1
# Fuc(a1-2)[Gal(a1-3)]Gal = biological target: Fuc(a1-2)[Gal(a1-3)]Gal
# Summary of the method: as §1
# [11] = biological target: Fuc(a1-2)[Gal(a1-3)]Gal(b1-3)GlcNAc
# Summary of the method: as §1
# [12] = biological target: Fuc(a1-2)[Gal(a1-3)]Gal(b1-4)Glc
# Summary of the method: as §1
# [13] = biological target: Fuc(a1-2)[Gal(a1-3)]Gal(b1-4)GlcNAc
# Summary of the method: as §1
# [14] = biological target: Fuc(a1-2)[Gal(a1-3)]Gal(b1-4)[Fuc(a1-3)]GlcNAc
# Summary of the method: as §1
# [15] = biological target: Fuc(a1-2)[Gal(a1-4)]Gal(b1-4)GlcNAc
# Summary of the method: as §1
# [16] = biological target: Fuc(a1-2)[GalNAc(a1-3)]Gal
# Summary of the method: as §1
# [17] = biological target: Fuc(a1-2)[GalNAc(a1-3)]Gal(b1-3)GlcNAc
# Summary of the method: as §1
# [18] = biological target: Fuc(a1-2)[GalNAc(a1-3)]Gal(b1-4)Glc
# Summary of the method: as §1
# [19] = biological target: Fuc(a1-2)[GalNAc(a1-3)]Gal(b1-4)GlcNAc
# Summary of the method: as §1
# [20] = biological target: Fuc(a1-2)[GalNAc(a1-3)]Gal(b1-4)[Fuc(a1-3)]GlcNAc
# Summary of the method: as §1
# [21] = biological target: Fuc(a1-2)[GalNAc(a1-4)]Gal(b1-4)GlcNAc
# Summary of the method: as §1
# [22] = biological target: Fuc(a1-2)[GalNAc(b1-3)]Gal
# Summary of the method: as §1
# Fuc(a1-3)GlcNAc = biological target: Fuc(a1-3)GlcNAc
# Summary of the method: as §1
# [23] = biological target: Fuc(a1-3)[Gal(b1-4)]GlcNAc
# Summary of the method: as §1
# [24] = biological target: Fuc(a1-3)[Gal(b1-4)]GlcNAc(b1-4)Gal(b1-4)[Fuc(a1-3)]GlcNAc
# Summary of the method: as §1
# [25] = biological target: Fuc(a1-3)[Gal(b1-4)]GlcNAc(b1-4)Gal(b1-4)[Fuc(a1-3)]GlcNAc(b1-4)Gal(b1-4)[Fuc(a1-3)]GlcNAc
# Summary of the method: as §1
# [26] = biological target: Fuc(a1-3)[Gal3S(b1-4)]GlcNAc
# Summary of the method: as §1
# [27] = biological target: Fuc(a1-3)[GalNAc(b1-4)]GlcNAc
# Summary of the method: as §1
# Fuc(a1-4)GlcNAc = biological target: Fuc(a1-4)GlcNAc
# Summary of the method: as §1
# Fuc(b1-3)GlcNAc = biological target: Fuc(b1-3)GlcNAc
# Summary of the method: as §1
# Gal(a1-2)Gal = biological target: Gal(a1-2)Gal
# Summary of the method: as §1
# Gal(a1-3)Gal = biological target: Gal(a1-3)Gal
# Summary of the method: as §1
# Gal(a1-3)Gal(b1-3)GlcNAc = biological target: Gal(a1-3)Gal(b1-3)GlcNAc
# Summary of the method: as §1
# Gal(a1-3)Gal(b1-4)Glc = biological target: Gal(a1-3)Gal(b1-4)Glc
# Summary of the method: as §1
# Gal(a1-3)Gal(b1-4)GlcNAc = biological target: Gal(a1-3)Gal(b1-4)GlcNAc
# Summary of the method: as §1
# [28] = biological target: Gal(a1-3)Gal(b1-4)[Fuc(a1-3)]GlcNAc
# Summary of the method: as §1
# Gal(a1-3)GalNAc = biological target: Gal(a1-3)GalNAc
# Summary of the method: as §1
# [29] = biological target: Gal(a1-3)[Gal(a1-4)]Gal(b1-4)GlcNAc
# Summary of the method: as §1
# Gal(a1-4)Gal(b1-4)Glc = biological target: Gal(a1-4)Gal(b1-4)Glc
# Summary of the method: as §1
# Gal(a1-4)Gal(b1-4)GlcNAc = biological target: Gal(a1-4)Gal(b1-4)GlcNAc
# Summary of the method: as §1
# Gal(a1-4)GlcNAc = biological target: Gal(a1-4)GlcNAc
# Summary of the method: as §1
# Gal(a1-6)Glc = biological target: Gal(a1-6)Glc
# Summary of the method: as §1
# Gal(b1-2)Gal = biological target: Gal(b1-2)Gal
# Summary of the method: as §1
# Gal(b1-3)Gal = biological target: Gal(b1-3)Gal
# Summary of the method: as §1
# Gal(b1-3)GalNAc = biological target: Gal(b1-3)GalNAc
# Summary of the method: as §1
# [30] = biological target: Gal(b1-3)GalNAc(b1-3)Gal(a1-4)Gal(b1-4)Glc
# Summary of the method: as §1
# [31] = biological target: Gal(b1-3)GalNAc(b1-4)Gal(b1-4)Glc
# Summary of the method: as §1
# [32] = biological target: Gal(b1-3)GalNAc(b1-4)[Neu5Ac(a2-3)]Gal(b1-4)Glc
# Summary of the method: as §1
# Gal(b1-3)GlcNAc = biological target: Gal(b1-3)GlcNAc
# Summary of the method: as §1
# [33] = biological target: Gal(b1-3)GlcNAc(b1-3)Gal(b1-4)Glc
# Summary of the method: as §1
# [34] = biological target: Gal(b1-3)GlcNAc(b1-3)Gal(b1-4)GlcNAc
# Summary of the method: as §1
# [35] = biological target: Gal(b1-3)[Fuc(a1-4)]GlcNAc
# Summary of the method: as §1
# [36] = biological target: Gal(b1-3)[Fuc(a1-4)]GlcNAc(b1-3)Gal(b1-4)GlcNAc
# Summary of the method: as §1
binder,measurement,setting,value
FaeGab (Escherichia coli) (protein) WMTGDFNGSVDIGGSITADDYRQKWEWKVGTGLNGFGNVLNDLTNGGTKLTITVTGNKPILLGRTKEAFATPVSGGVDGIPQIAFTDYEGASVKLRNTDGETNKGLAYFVLPMKNAEGTKVGSVKVNASYAGVFGKGGVTSADGELFSLFADGLRAIFYGGLTTTVSGAALTSGSAAAARTELFGSLSRNDILGQIQRVNANITSLVDVAGSYREDMEYTDGTVVSAAYALGIANGQTIEATFNQAVTTSTQWSAPLNVAITYY,glycan array binding signal (z-score),Fuc(a1-2)Gal,0.028
same,glycan array binding signal (z-score),Fuc(a1-2)Gal(b1-3)GalNAc,-0.293
same,glycan array binding signal (z-score),[1],-0.428
same,glycan array binding signal (z-score),[2],-0.423
same,glycan array binding signal (z-score),[3],-0.204
same,glycan array binding signal (z-score),Fuc(a1-2)Gal(b1-3)GlcNAc,-0.346
same,glycan array binding signal (z-score),[4],-0.226
same,glycan array binding signal (z-score),[5],-0.354
same,glycan array binding signal (z-score),Fuc(a1-2)Gal(b1-4)Glc,-0.16
same,glycan array binding signal (z-score),Fuc(a1-2)Gal(b1-4)GlcNAc,-0.37
same,glycan array binding signal (z-score),[6],-0.428
same,glycan array binding signal (z-score),[7],-0.383
same,glycan array binding signal (z-score),[8],-0.357
same,glycan array binding signal (z-score),[9],-0.397
same,glycan array binding signal (z-score),[10],-0.302
same,glycan array binding signal (z-score),Fuc(a1-2)GlcNAc,-0.261
same,glycan array binding signal (z-score),Fuc(a1-2)[Gal(a1-3)]Gal,-0.469
same,glycan array binding signal (z-score),[11],-0.449
same,glycan array binding signal (z-score),[12],-0.39
same,glycan array binding signal (z-score),[13],-0.456
same,glycan array binding signal (z-score),[14],-0.494
same,glycan array binding signal (z-score),[15],-0.378
same,glycan array binding signal (z-score),[16],-0.356
same,glycan array binding signal (z-score),[17],-0.511
same,glycan array binding signal (z-score),[18],-0.492
same,glycan array binding signal (z-score),[19],-0.506
same,glycan array binding signal (z-score),[20],-0.305
same,glycan array binding signal (z-score),[21],-0.283
same,glycan array binding signal (z-score),[22],0.031
same,glycan array binding signal (z-score),Fuc(a1-3)GlcNAc,0.049
same,glycan array binding signal (z-score),[23],-0.229
same,glycan array binding signal (z-score),[24],-0.089
same,glycan array binding signal (z-score),[25],-0.422
same,glycan array binding signal (z-score),[26],-0.159
same,glycan array binding signal (z-score),[27],-0.281
same,glycan array binding signal (z-score),Fuc(a1-4)GlcNAc,-0.32
same,glycan array binding signal (z-score),Fuc(b1-3)GlcNAc,-0.112
same,glycan array binding signal (z-score),Gal(a1-2)Gal,0.217
same,glycan array binding signal (z-score),Gal(a1-3)Gal,0.089
same,glycan array binding signal (z-score),Gal(a1-3)Gal(b1-3)GlcNAc,-0.364
same,glycan array binding signal (z-score),Gal(a1-3)Gal(b1-4)Glc,-0.281
same,glycan array binding signal (z-score),Gal(a1-3)Gal(b1-4)GlcNAc,-0.522
same,glycan array binding signal (z-score),[28],-0.358
same,glycan array binding signal (z-score),Gal(a1-3)GalNAc,-0.083
same,glycan array binding signal (z-score),[29],-0.397
same,glycan array binding signal (z-score),Gal(a1-4)Gal(b1-4)Glc,-0.353
same,glycan array binding signal (z-score),Gal(a1-4)Gal(b1-4)GlcNAc,-0.265
same,glycan array binding signal (z-score),Gal(a1-4)GlcNAc,-0.064
same,glycan array binding signal (z-score),Gal(a1-6)Glc,0.572
same,glycan array binding signal (z-score),Gal(b1-2)Gal,0.149
same,glycan array binding signal (z-score),Gal(b1-3)Gal,0.407
same,glycan array binding signal (z-score),Gal(b1-3)GalNAc,0.385
same,glycan array binding signal (z-score),[30],-0.015
same,glycan array binding signal (z-score),[31],0.153
same,glycan array binding signal (z-score),[32],-0.125
same,glycan array binding signal (z-score),Gal(b1-3)GlcNAc,-0.27
same,glycan array binding signal (z-score),[33],0.776
same,glycan array binding signal (z-score),[34],-0.347
same,glycan array binding signal (z-score),[35],-0.192
same,glycan array binding signal (z-score),[36],-0.388

# From the supplement of paper PMC8728848
